Out of some 310,000 compounds screened, about 14,000 (4.5%) showed an effect of 50% or more. The effect is printed as a negative number. The list shows a part of the results.
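Note: peak tail current of the secondary pulse compared with the same well before compound.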

The target of the assay is human ether-à-go-go-related gene (hERG) potassium channel (human, UniProt Q12809). Description: primary screen, population patch clamp on CHO cells stably expressing hERG.
Sequence of human ether-à-go-go-related gene (hERG) potassium channel (Q12809 whole entry, looked up): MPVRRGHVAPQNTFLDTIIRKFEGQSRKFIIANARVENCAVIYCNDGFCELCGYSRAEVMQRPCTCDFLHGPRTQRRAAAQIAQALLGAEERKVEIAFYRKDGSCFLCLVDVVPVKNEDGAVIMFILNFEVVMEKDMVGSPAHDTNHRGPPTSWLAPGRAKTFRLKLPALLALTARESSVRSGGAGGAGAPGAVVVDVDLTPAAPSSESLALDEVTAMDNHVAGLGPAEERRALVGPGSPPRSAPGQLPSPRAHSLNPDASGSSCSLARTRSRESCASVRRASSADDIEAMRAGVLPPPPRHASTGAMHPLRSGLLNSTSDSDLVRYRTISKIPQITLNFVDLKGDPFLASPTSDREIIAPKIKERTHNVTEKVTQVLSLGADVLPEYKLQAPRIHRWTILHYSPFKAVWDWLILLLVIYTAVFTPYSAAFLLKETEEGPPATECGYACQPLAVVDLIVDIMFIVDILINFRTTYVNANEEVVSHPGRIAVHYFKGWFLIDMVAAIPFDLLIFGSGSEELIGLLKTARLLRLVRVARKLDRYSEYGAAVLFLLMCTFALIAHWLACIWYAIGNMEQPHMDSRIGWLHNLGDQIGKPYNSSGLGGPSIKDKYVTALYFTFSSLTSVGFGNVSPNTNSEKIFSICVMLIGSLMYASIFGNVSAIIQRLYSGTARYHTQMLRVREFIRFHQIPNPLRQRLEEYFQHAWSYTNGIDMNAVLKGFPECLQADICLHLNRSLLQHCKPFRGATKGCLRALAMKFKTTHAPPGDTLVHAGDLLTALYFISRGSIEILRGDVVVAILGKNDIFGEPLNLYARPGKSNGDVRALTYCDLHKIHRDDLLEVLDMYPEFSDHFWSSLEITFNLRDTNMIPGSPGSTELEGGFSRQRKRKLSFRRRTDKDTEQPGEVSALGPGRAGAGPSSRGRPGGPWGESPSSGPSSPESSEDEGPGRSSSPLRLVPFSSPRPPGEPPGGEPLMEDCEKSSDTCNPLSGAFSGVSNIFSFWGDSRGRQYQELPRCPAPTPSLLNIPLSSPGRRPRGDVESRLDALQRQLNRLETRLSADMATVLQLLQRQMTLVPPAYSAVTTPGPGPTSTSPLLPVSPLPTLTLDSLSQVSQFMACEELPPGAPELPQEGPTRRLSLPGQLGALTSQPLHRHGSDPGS
In the case of `O=C(O)C12C3CCCC1C32c1ccccc1` (stereo not shown), the “hERG current change (%, negative = inhibition) at 10uM” value was 21.7%. Consider `O=C(COc1ccc2c3c(c(=O)oc2c1)CCCC3)N1CCN(c2ccccc2)CC1`, for which the “hERG current change (%, negative = inhibition) at 10uM” value was determined as 5.89%. The result for `CC(=O)N1CCN(C(=O)c2ccc(C(=O)c3ccccc3)cc2)CC1` reads 6.39%; that for `O=C(OCc1cccc([N+](=O)[O-])c1)c1cc(=O)[nH]c2ccccc12`, 20.8%.

`Cc1ccccc1NC(=O)c1cc(S(=O)(=O)N2CCCCC2)cs1`: the “hERG current change (%, negative = inhibition) at 10uM” value is recorded as -6.25%. With `CC1CCCN(C(=O)/C(=C/c2ccco2)NC(=O)c2ccccc2)C1` (stereo not shown) the figure was -22.8%.

Take `Cc1cc2cc3c(cc2nc1SCC(=O)Nc1nc(C)c(C)s1)OCO3`: the “hERG current change (%, negative = inhibition) at 10uM” value came to 10.5%. With `Cc1ccc(C(=O)Nc2ccc(O)cc2C(=O)O)cc1C` the figure was 17.4%; with `COc1ccc(C(=O)CSc2nnc(CNC(=O)c3ccco3)n2C)cc1`, -3.62%.

For `CCCC(=O)Nc1ccc(-c2nc3ncccc3o2)cc1`, the “hERG current change (%, negative = inhibition) at 10uM” value turned out to be 16.9%.

`O=C(O)c1ccc(-n2cccc2)cc1O`: the “hERG current change (%, negative = inhibition) at 10uM” value is -5.78%.

With `COc1cc(/C=N/Nc2nc(=O)[nH]nc2C)cc(OC)c1O`, the “hERG current change (%, negative = inhibition) at 10uM” value came to 11.7%. With `Nc1nnnn1CC(=O)N/N=C/c1ccccn1` the figure was 22.7%; with `Cc1ccc(NC(=O)CN(C)C(=S)NC2CC2)cc1`, 16.4%; with `C[C@H](NC(=O)c1nc[nH]c1C(=O)NCc1ccc(CNC(=O)OC(C)(C)C)cc1)c1ccccc1`, 11.3%. `COc1ccc(-n2c(O)c(C(C)=NCCCn3ccnc3)c(=O)[nH]c2=O)cc1`: the “hERG current change (%, negative = inhibition) at 10uM” value was -12.3%. With `COc1ccc(C(=O)NCc2nnc(SCC(=O)Nc3nc4ccccc4s3)o2)cc1OC` the figure was 17.8%; with `O=C(N/N=C/c1ccc(OC(F)F)cc1OC(F)F)c1cccc(S(=O)(=O)N2CCOCC2)c1`, -33.1%. With `O=C(Nc1cccn2ncnc12)c1cccc(C(F)(F)F)c1` the figure was 5.35%; with `CCCNC(=O)CC(NS(=O)(=O)c1ccc(NC(C)=O)cc1)C(C)C` (stereo not shown), 25.9%; with `CCOC(=O)C1CCN(C(=S)NC2CC3C=CC2C3)CC1` (stereo not shown), -54.3%. With `CCn1c(=O)c(=O)[nH]c2cc(C(=O)Nc3ccc(S(=O)(=O)N4CCCC4)cc3)ccc21` the figure was 2.83%. Consider `COc1ccc(N(CC(=O)N/N=C/c2ccco2)S(=O)(=O)c2ccccc2)cc1Cl`, for which the “hERG current change (%, negative = inhibition) at 10uM” value is reported as -23.5%.

As to `O=C(Nc1cc(C(F)(F)F)ccc1N1CCCC1)C1=COCCO1`, the “hERG current change (%, negative = inhibition) at 10uM” value is -8.16%. The result for `CN(C)c1ccc(/C=N/n2c(COc3ccccc3)n[nH]c2=S)cc1` reads -11.6%; that for `COc1ccc(OC)c(NC(=O)CC(Cc2ccccc2OC)C(=O)O)c1` (stereo not shown), 6.62%; that for `CCC(C)N(C(=O)Cn1nnc2ccccc21)C(C(=O)NCc1ccco1)c1cccc(OC)c1` (stereo not shown), -6.44%. The result for `CCOc1cc(C(=O)Nc2nnc(CC)s2)ccc1OCC(=O)N1CCOCC1` reads 9.38%. As for `CC1CN(S(=O)(=O)c2ccc(C(=O)N(CCCN(C)C)c3nc4c(Cl)cccc4s3)cc2)CC(C)O1.Cl` (stereo not shown), the “hERG current change (%, negative = inhibition) at 10uM” value is on record as -36.7%.

Consider `COc1ccc(S(=O)(=O)N2CCCCC2)cc1NC(=O)Cn1cnc2ccccc2c1=O`, for which the “hERG current change (%, negative = inhibition) at 10uM” value came out at 4.22%. `O=C1N/C(=N\S(=O)(=O)Cc2ccccc2)S/C1=C/c1cccc([N+](=O)[O-])c1`: the “hERG current change (%, negative = inhibition) at 10uM” value is 23.2%. For `O=C(Cn1cc([N+](=O)[O-])ccc1=O)N1CCCc2ccccc21`, the “hERG current change (%, negative = inhibition) at 10uM” value is listed as 4.68%. In the case of `Cc1ccc2nc(/N=C(\N)NC(=O)NC3CCCCC3)nc(C)c2c1`, the “hERG current change (%, negative = inhibition) at 10uM” value is -76.4%. With `O=C(c1ccco1)N1CCCC(c2nc3c(nnn3Cc3ccc(Cl)cc3Cl)c(=O)[nH]2)C1` (stereo not shown) the figure was -36.1%; with `COc1ccc(C2=NCCn3nc4cc(C(F)(F)F)ccc4c32)cc1`, -2.18%. The result for `COc1ccc(-n2c(-c3ccc(OC)c(OC)c3)n[nH]c2=S)cc1` reads 7.04%; that for `CC(C)N=c1scc(-c2ccco2)n1/N=C/c1ccc(O)c(O)c1`, -13.4%; that for `O=C(CNC(=O)c1ccccc1F)c1ccccc1`, 14.5%. The result for `O=C(OCC(=O)N1CCCC1)c1ccc(S(=O)(=O)Nc2ccccc2)cc1` reads 9.1%; that for `O=C(CN(Cc1ccc(F)cc1)C(=O)Cn1nnc2ccccc21)NCC1CCCO1` (stereo not shown), 0.991%; that for `COc1cc(S(=O)(=O)N(Cc2ccccn2)Cc2ccccc2Cl)ccc1-n1cnnn1`, -3.64%. `CC(=O)SCC(=O)N=c1sc2cc(F)ccc2n1C`: the “hERG current change (%, negative = inhibition) at 10uM” value was -10.7%.

Regarding `Nc1nc(-c2ccc3c(c2)OCCO3)c(CC(=O)O)s1`, the “hERG current change (%, negative = inhibition) at 10uM” value turned out to be 18.4%.

For the compound `c1ccc(-c2cc3nccc(-c4ccccn4)n3n2)cc1`, the “hERG current change (%, negative = inhibition) at 10uM” value was -46.3%. As to `COCCN1C(=O)C(=O)/C(=C(/O)c2ccc(S(=O)(=O)N3CCCCC3)cc2)C1c1ccc(OC)c(OC)c1` (stereo not shown), the “hERG current change (%, negative = inhibition) at 10uM” value was 8.21%. Regarding `COc1ccc2nc(NC(=O)Nc3ccccc3)sc2c1`, the “hERG current change (%, negative = inhibition) at 10uM” value worked out at 0.904%. The result for `CN(C)c1ccc(C(=O)N2CCNC(=O)C2CC(=O)Nc2ccc(F)cc2)cc1` (stereo not shown) reads 17.1%. Consider `NC(=S)Nc1ncc(C(F)(F)F)cc1Cl`, for which the “hERG current change (%, negative = inhibition) at 10uM” value is listed as 12.2%. On to `CCOC(=O)Cn1cc(C#N)c2cccc(CC)c21`, for which the “hERG current change (%, negative = inhibition) at 10uM” value turned out to be 1.42%. With `CCN1CCN(c2nc(Nc3ccccc3F)nc(N)c2[N+](=O)[O-])CC1` the figure was -56.6%. On to `CCCN(CCC)CC(O)CN(c1cc([N+](=O)[O-])ccc1OC)S(=O)(=O)c1ccccc1.Cl` (stereo not shown), for which the “hERG current change (%, negative = inhibition) at 10uM” value was -60.4%. `O=C(NC(=S)NCCCN1CCOCC1)c1ccc([N+](=O)[O-])cc1`: the “hERG current change (%, negative = inhibition) at 10uM” value is -33.4%. With `CCOC(=O)N1CCC(NC(=O)c2oc3c(c2C)-c2[nH]ncc2CC3)CC1` the figure was 18.5%; with `CCOC(=O)c1ccc(NC(=S)N(CCCN2CCN(C)CC2)Cc2cccs2)cc1`, -65.4%; with `CC(NC(=O)[C@@H](NC(=O)[C@@H]1Cc2ccccc2CN1)C(C)C)c1ccccc1` (stereo partly shown), -1.36%. Consider `O=C(NCc1cccc(Cl)c1)C1CCN(c2nnc(N3CCCC3=O)s2)CC1`, for which the “hERG current change (%, negative = inhibition) at 10uM” value is -10.7%. With `Cc1ccc(C(=O)NCCN2C3=NC[C@@H](Cc4ccccc4)N3C[C@H]2Cc2ccc(O)cc2)cc1Br` the figure was -71.1%. With `COc1ccc(C2SCC(=O)N2c2ccccc2)cc1` (stereo not shown) the figure was 8.97%; with `Cc1cccc(NC(=O)CSc2ncnc3sc(C)c(C)c23)n1`, -3.86%. The result for `Cc1ccc(CNC(=O)CS(=O)Cc2nc(-c3ccccc3F)oc2C)cc1` (stereo not shown) reads -12.7%. On to `CCN1CCN(c2cc(C)c3cc(NC(=S)NCc4cccs4)ccc3n2)CC1`, for which the “hERG current change (%, negative = inhibition) at 10uM” value is recorded as -59.7%.

Turning to `O=C(CNCc1ccccc1Cl)Nc1ccc2c(c1)OCCO2.O=C(O)C(=O)O`, the “hERG current change (%, negative = inhibition) at 10uM” value is reported as -19.1%. The result for `Cc1cc(C)n(C(=O)/C=C/c2cccs2)n1` reads 13.1%; that for `Cc1ccc(S(=O)(=O)N2CCC(=O)N(C(COCc3cccc(C)c3)Cc3ccccc3)CC2)cc1` (stereo not shown), -29.1%. Take `CC(=O)Nc1ccc(CN2CCc3c([nH]c4ccccc34)C2C(C)(C)C)cc1` (stereo not shown): the “hERG current change (%, negative = inhibition) at 10uM” value was 4.92%. Take `CN(C)CCn1c(=S)[nH]c2ccc(Cl)cc2c1=O`: the “hERG current change (%, negative = inhibition) at 10uM” value is given as -21.7%. The result for `COc1cccc(NC(=S)NN=C2CCC(C(C)(C)C)CC2)c1` (stereo not shown) reads 13.7%. As to `CC(C)(C)n1nnnc1C(c1cccs1)N1CCN(Cc2ccc3c(c2)OCO3)CC1` (stereo not shown), the “hERG current change (%, negative = inhibition) at 10uM” value was -19.4%. In the case of `Cc1c(C)n(Cc2ccccc2)c2ncnc(NN)c12`, the “hERG current change (%, negative = inhibition) at 10uM” value is -10.2%.

For `CCOc1ccccc1NS(=O)(=O)c1cccs1`, the “hERG current change (%, negative = inhibition) at 10uM” value was -2.15%. With `Cc1nnc(SCCn2c(N3CCCC(C)C3)nc3c2c(=O)[nH]c(=O)n3C)s1` (stereo not shown) the figure was 2.42%; with `FC(F)(F)c1nnc2ccc(Sc3ccccn3)nn12`, 17.1%. `COc1ccc(NC(=O)CN(C)C(=O)c2cccc(S(=O)(=O)N3CCCc4ccccc43)c2)cc1`: the “hERG current change (%, negative = inhibition) at 10uM” value was -39.3%. The result for `CCn1c(=O)c2c(cnn2C)c2ccccc21` reads 2.58%; that for `COc1ccc(CN2C(=O)CCC2(C)C(=O)NCc2cccnc2)c(OC)c1` (stereo not shown), -15.4%. With `O=S1(=O)CC(N2CCOCC2)c2ccccc21` (stereo not shown) the figure was -3.12%; with `O=C(CCC(=O)Nc1ccccc1Cl)NNC(=S)Nc1ccccc1C(F)(F)F`, 21.8%; with `COc1ccc(CCNC(=O)c2sc(=S)n(C)c2N)cc1`, 15.1%.

Take `COc1ccc(NC(=O)[C@H](Cc2c[nH]c3ccccc23)NC(=O)[C@@H]2Cc3ccccc3CN2)cc1`: the “hERG current change (%, negative = inhibition) at 10uM” value was -36.8%. Consider `COC(=O)Cc1c(C)nc2nc(-c3ccc(OC)cc3)[nH]n2c1=O`, for which the “hERG current change (%, negative = inhibition) at 10uM” value was -8.18%. The result for `COC(=O)c1ccc2c(=O)n(CCCCCC(=O)NCc3ccccn3)c(=O)[nH]c2c1` reads 2.27%; that for `Cc1cc2nnc(SCC(=O)N3CCN(c4ccccc4)CC3)n2c(N)n1`, -11.5%.

For `COC(=O)C1=C(c2ccc(S(C)(=O)=O)cc2)C[C@@H]2CC[C@H]1N2C(=O)N1CCCC1`, the “hERG current change (%, negative = inhibition) at 10uM” value came to 2.35%. With `CNCCc1c[nH]c2ccc(O)cc12.O=C(O)C(=O)O` the figure was 17.7%. The result for `COC(=O)c1[nH]c2cccc(OC)c2c1NC(=O)CCN1CC(C)CC(C)C1` (stereo not shown) reads -21.1%.

The values are drawn from PMC4336329 (PLoS ONE, 2015).
